# Screen size: about 130,000 compounds; about 550 (0.42%) were called active. Inconclusive means that the source gave no clear call. Such entries were picked first, then a sample of the others. Calls follow the shape of the dose curve; as a rule, active = well fitted inhibition curve with a large enough effect; inconclusive = small, poorly fitted or top-dose-only effect, or effect the other way; inactive = flat fitted curve, though single readings scatter. Potencies of inconclusive entries are left out as doubtful fits.
# Assay: qHTS Assay for Inhibitors of the ERK Signaling Pathway using a Homogeneous Screening Assay; Stimulation with EGF; also: nearly all actives have a fitted effect of over 55% in size;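 as to activity change, negative = inhibition: plate controls were stimulated vehicle wells for no effect and unstimulated vehicle basal for full effect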
# Conditions: HEK293-V1b, EGF-stimulated phospho-ERK AlphaScreen; activity change, negative = inhibition: at the top concentration
# Summary of the method: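 EGF-stimulated (25 nM, 5 min) phospho-ERK in HEK293 cells stably expressing V1b, cells pretreated 30 min with compound at 37C. Homogeneous AlphaScreen read on lysates.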
# Potency is read from the fitted curve at half-maximal effect; tags tell the direction and shape of the fitted curve.
Compound,Potency,"activity change, negative = inhibition"
C[C@H]1CC[C@H]2C(=O)N3[C@H](c4ccccc4Br)[C@@H](C)CC[C@H]3C(=O)N2[C@@H]1c1ccccc1Br,"inconclusive [inhibitor, single point]",–
Cc1cccc(-n2c(N)c(-c3nc4ccccc4n3C)c3nc4ccccc4nc32)c1,"inconclusive [activator, partial curve]",–
CC(=O)OC1CC(O)C(C)(C)C2CC(OC(C)=O)[C@]3(C)C(CC[C@@]4(C)C(c5ccoc5)OC(=O)C5OC534)[C@]12C (stereo partly drawn),"inconclusive [activator, full curve, poor fit]",–
COc1cccc(NC(=S)Nc2cc(C)cc(C)n2)c1,–,inactive: -12.9% [at 57.5 µM]
COc1cccc2[nH]c3c(N4CCc5ccccc5C4)ncnc3c12,active: 22.4 µM,–
COc1ccc(C2CCCN2C(=S)Nc2cccc(C)c2)cc1OC (stereo not drawn),"inconclusive [inhibitor, single point]",–
CSc1nc(N(C)C)nc(N(C)C#N)n1,"inconclusive [inhibitor, single point]",–
CC(=O)NC(=S)Nc1ccccc1N1CCN(C(=O)c2ccccc2)CC1,active: 31.6 µM,–
CN1CCN(C(=O)c2cc(COc3c(F)cccc3F)on2)CC1c1ccccc1 (stereo not drawn),"inconclusive [inhibitor, single point]",–
Cc1cc(C(=O)COc2cccnc2[N+](=O)[O-])c(C)n1Cc1cccs1,"inconclusive [inhibitor, full curve, poor fit]",–
CS(=O)(=O)Nc1cccc(-c2nccc(NCc3ccccc3)n2)c1,–,inactive: 28.8%
COc1ccccc1N1C(=O)C2C3CC(c4ccccc4)C(C3)C2C1=O (stereo not drawn),"inconclusive [inhibitor, single point]",–
COC(=O)C1CCN(C2=C(NS(=O)(=O)c3ccc(Cl)cc3)C(=O)c3ccccc3C2=O)CC1,"inconclusive [inhibitor, partial curve]",–
O=c1nc(/C=C/c2ccc(O)c(O)c2)oc2ccccc12,"inconclusive [inhibitor, full curve]",–
Cc1ccc(S(=O)(=O)Nc2ccc(O)c(Sc3ncn[nH]3)c2)cc1,–,inactive: -5.67%
CS(=O)(=O)c1ccc(C(O)C(CO)NC(=O)C(Cl)Cl)cc1 (stereo not drawn),–,inactive: 10.5%
CC1(C)CC(C(CC(=O)N2CCCC2)Cc2ccccc2)CCO1 (stereo not drawn),"inconclusive [inhibitor, partial curve]",–
O=c1c2ccccc2c(-c2ccc(O)cc2)nn1-c1cccc(C(F)(F)F)c1,"inconclusive [inhibitor, single point]",–

# Source: PubChem BioAssay AID1454 (National Center for Advancing Translational Sciences (NCATS), 2008)
